# Experimental data as given in PubChem BioAssay AID686971 (National Center for Advancing Translational Sciences (NCATS), 2013).
# Out of some 360,000 compounds screened, about 7,500 (2.1%) were called active. This list was built around the results that the source calls inconclusive (neither active nor inactive); the mix of calls is not that of the screen. The call rests on the fitted dose curve; in most records, active means well fitted cell-killing curve with a large enough effect; inconclusive means small, poorly fitted or top-dose-only effect, or effect the other way, or another doubt; inactive means no such curve, though single readings can be large or run the other way. Potencies of inconclusive entries are left out as doubtful fits.
# Assay: qHTS for induction of synthetic lethality in tumor cells producing 2HG: qHTS for the HT-1080-IDH1KD cell line;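 on activity, negative = toxicity: 0% = DMSO wells and -100% = cell-free medium wells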
# Settings: HT-1080 IDH1 knockdown viability, ATP luminescence, 48 h; activity, negative = toxicity: at 46.1 µM (top of the series) unless noted
# How it was run: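 In this qHTS, HT-1080 cells depleted of IDH1 are exposed for 48 h at 37 °C to compound titrations. Toxicity is scored from CellTiter-Glo luminescence, with DMSO as full viability and medium alone as none.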
# Potency means the concentration at half of the fitted maximal effect; tags describe the fitted curve by direction and shape.
SMILES,"activity, negative = toxicity",Potency
O=C(Nc1nnc(-c2ccc(Cl)cc2)o1)C1=COCCO1,inactive: -1.24%,
Cc1cccc(N2CCN(C(=O)C(Cc3ccccc3)n3cccc3)CC2)c1C (stereo not drawn),,"inconclusive [cytotoxic, single point]"
CC1(C)CC(=O)C2=C(C1)OC1=C(C(=O)CC(C)(C)C1)C2c1ccc(O)cc1O,,active: 5.01 µM
O=c1c2c(-c3ccccc3)csc2nc2c3ccccc3c(NCCN3CCOCC3)nn12,,active: 10.3 µM
CC(C)CNc1ncnc2c1ncn2[C@H]1CN(Cc2cccc3ccccc23)C[C@@H](CO)O1,,"inconclusive [cytotoxic, partial curve]"
COc1cccc(/C=C/C(=O)Nc2ccc3nc4n(c(=O)c3c2)CCCC4)c1OC,,"inconclusive [cytotoxic, single point]"
O=C(Nc1ccccc1N1CCOCC1)c1ccccc1NS(=O)(=O)c1ccc(F)c(F)c1,,"inconclusive [cytotoxic, single point]"
CC(C)(C)S(=O)N1Cc2cc(C(=O)N[C@@H]3CCN(Cc4ccccc4)C3)nc(-c3cccc(-c4cc5ccccc5o4)c3)c2[C@@H]1CCO (stereo partly drawn),,"inconclusive [cytotoxic, single point]"
O=C(CNC(=O)c1ccccc1Br)N/N=C/c1ccccc1O,,"inconclusive [cytotoxic, single point]"
Cc1ccc(S(=O)(=O)N(C)c2ccc(OC(=O)c3cccs3)cc2)cc1C,inactive: 0%,
Cn1cc(CC(=O)N2CCN(c3ccc(Cl)cc3)CC2)c2ccccc21,,"inconclusive [cytotoxic, single point]"
CCOC(=O)N1CCN(C(=O)C2CCN(C(=O)c3ccccc3C)CC2)CC1,,"inconclusive [cytotoxic, single point]"
O=C(c1cn(Cc2ccccc2)nc1-c1ccccc1)N1CCN(c2ccccn2)CC1,,active: 16.4 µM
CCn1cc(C(=O)NCC(OC)OC)c(=O)c2cc(S(=O)(=O)N3CCCC3)ccc21,inactive: -4.5%,
CC(C)(C)n1cnc2cc(NC(=O)c3ccc(Cl)cc3)ccc21,,"inconclusive [cytotoxic, single point]"
CCOc1ccc2nc(N(CCCN(C)C)C(=O)c3ccc(C(=O)c4ccccc4)cc3)sc2c1,,"inconclusive [cytotoxic, single point]"
COc1ccc(NC(=S)Nc2ccc3c(c2)c(=O)n(C)n3-c2ccccc2)cc1,,"inconclusive [cytotoxic, partial curve]"
CCC(C)(CCNC(=O)Cc1ccccc1)c1ccccc1OC (stereo not drawn),inactive: -2.06%,
